# According to PubChem BioAssay AID1234 (University of Pittsburgh Molecular Library Screening Center, 2008):
# The list shows a part of the results. The main result of the screen is listed elsewhere. These columns were measured beside it and carry no call.
# Test: compounds producing H2O2 with reducing agent – biochemical, 10-point concentration response, NIH library profiling, artefact control for MLSCN library redox annotation, dose response (AID 1234)
# Conditions: DTT-dependent redox cycling H2O2, phenol red-HRP absorbance; H2O2 generation; at 50 µM; stronger effect = higher value
structure (smiles),measurement,value
CCCc1nc2c(=O)n(C)c(=O)nc-2n(C)n1,activation,111%
CC(=O)Nc1cc(OC(C)=O)c2nonc2c1OC(C)=O,activation,133%
COc1ccc(CN2C(=O)c3cccnc3C2O)cc1 (centres undefined),activation,-0.04%
CCOC(=O)c1c2c(n(C)c1COC)C(=O)C(=O)c1ccc(Br)cc1-2,activation,135%
CCOc1ccc2c(=O)c(Oc3ccccc3)c(C)oc2c1,activation,-0.92%
Cc1cc(C)c(S(=O)(=O)Nc2cc(SCC(=O)O)c(O)c3ccccc23)cc1C,activation,-1.47%
O=C1C(Nc2ccccc2)=C/C(=N/S(=O)(=O)c2cccs2)c2ccccc21,activation,0.22%
Cc1ccc(NC2=C/C(=N\S(=O)(=O)c3cccs3)c3ccccc3C2=O)c(C)c1,activation,94.8%
CCCCn1c(NC(=O)c2ccccc2Cl)c(C#N)c2nc3ccccc3nc21,activation,127%
Cc1ccc(S(=O)(=O)/N=C2/C=C(Sc3ncn[nH]3)C(=O)c3ccccc32)cc1,activation,116%
Cc1oc2c(c1C(=O)c1ccc(Cl)cc1)C(=O)C(=O)c1ccccc1-2,activation,78.8%
Cc1ccc(C)c(S(=O)(=O)Nc2cc(SCC(=O)O)c(O)c3ccccc23)c1,activation,114%
CC(C)c1ccc(S(=O)(=O)/N=C2/C=C(Sc3ncn[nH]3)C(=O)c3ccccc32)cc1,activation,121%
CC(=O)C(C(C)=O)C1(O)C(=O)c2ccccc2C1=O,activation,-1.5%
Cc1ccc(S(=O)(=O)/N=C2/C=C(Sc3ncn[nH]3)C(=O)c3ccccc32)c(C)c1,activation,127%
CNC1=C(N(C(C)=O)c2ccc(Br)cc2)C(=O)c2ccccc2C1=O,activation,94.2%
CCOC(=O)N1CCN(c2cc(NCCC(=O)O)c3c4c(onc24)-c2ccccc2C3=O)CC1,activation,-1%
Nc1cc2nsnc2cc1Br,activation,0.13%
O=S(=O)(Nc1c(S(=O)(=O)c2ccccc2)c2nc3ccccc3nc2n1C1CCCCC1)c1ccccc1,activation,118%
C/C(=N/Nc1ccc(C(=O)O)cc1)c1ccc(O)c(O)c1O,activation,-0.76%
CCOC(=O)c1c2c(n(C)c1C)C(=O)C(=O)c1ccc(Br)cc1-2,activation,115%
CC(NC(=O)COC(=O)c1ccc([N+](=O)[O-])s1)c1ccccc1 (centres undefined),activation,-0.94%
O=C(COC(=O)c1ccc([N+](=O)[O-])s1)Nc1ncc(C(F)(F)F)cc1Cl,activation,3.25%
O=C1C=C(NCCN2CCOCC2)C(=O)c2cnccc21,activation,-0.13%
